Measurements as given in PubChem BioAssay AID540267 (National Center for Advancing Translational Sciences (NCATS), 2011).
Among all 340,000 compounds or so, about 530 (0.16%) were called active. The inconclusive results got no clear call from the source; some entries with a clear call stand among them for comparison. No stated cut-off is given here; in the data, active means activity change below about -80%; inconclusive means between about -30% and that limit; inactive means weaker than that.

Assay: Small Molecules that selectively kill Giardia lamblia: qHTS;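 further: parasites exposed to compound for two days anaerobically before the ATP read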
Conditions: Giardia lamblia trophozoite viability; at 7.66 µM; active compounds read low
Method in brief: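 Trophozoite viability was measured as ATP-dependent luminescence, read 15-30 min after reagent addition. Before that, parasites at 100 cells/well were exposed to compounds for 48 h, anaerobically, at 37 deg C.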
On the % scale 0 is the no-effect control and ±100 the full control effect.

Structure (SMILES)	activity change
CC[C@]12c3[nH]c4ccccc4c3CCN1C(=O)C(CC(=O)NCCc1ccccn1)C[C@@H]2C(=O)N1CCN(C(=O)c2ccco2)CC1 (stereo partly specified)	inconclusive: -31.8% [inhibitor]
CN(Cc1cccnc1)Cc1cn(C)nc1-c1ccc(Oc2ccccc2)cc1	inconclusive: -37.9% [inhibitor]
O=S(=O)(c1ccc(Cl)nc1)N1CCCC1	inactive: 5.77%
CN(C)S(=O)(=O)c1ccc(N2CCCC2)c(C(=O)N2CCN(c3ccc([N+](=O)[O-])cc3)CC2)c1	inconclusive: -59.7% [inhibitor]
N#Cc1c(-c2ccccc2)cc(-c2ccccc2)nc1SCC(=O)NCC(=O)O	inconclusive: -33.3% [inhibitor]
COc1ccc(CCC(=O)OCC(=O)Nc2c(C)n(C)n(-c3ccccc3)c2=O)cc1	inconclusive: -38.2% [inhibitor]
COc1ccccc1C1CC(c2ccc(NS(C)(=O)=O)cc2)=NN1S(=O)(=O)c1ccccc1 (stereo unspecified)	inconclusive: -32.7% [inhibitor]
O=C(/C=C/c1ccccc1)C1=C(O)C(=O)N(CCO)C1c1cccc([N+](=O)[O-])c1 (stereo unspecified)	inconclusive: -32.6% [inhibitor]
COc1cc(/C=N/NC(=O)c2ccc(COc3ccccc3Cl)o2)cc(Br)c1O	inactive: 8.81%
Cc1cc(SCC(=O)OCC(=O)N(CCC#N)c2ccccc2)nc2ccccc12	inactive: -7.9%
CC(=O)Oc1ccc(N2C(=O)[C@@H]3[C@H](C2=O)[C@H]2c4ccccc4C=NN2[C@@H]3C(C)=O)cc1	inconclusive: -32.1% [inhibitor]
O=c1[nH]c(/C=C/c2ccc(OC(F)F)cc2)nc2c1cnn2-c1ccccc1	inactive: 5.97%
COc1cc(C2Nc3ccccc3C(=O)N2NS(C)(=O)=O)c([N+](=O)[O-])cc1OC (stereo unspecified)	inconclusive: -33.2% [inhibitor]
COc1ccc(NC(=O)c2ccc(OC(F)F)cc2)cc1Cl	inconclusive: -34.2% [inhibitor]
Cc1ccnc(N2CCCC(C(=O)Nc3ccc(C)c(C)c3)C2)n1 (stereo unspecified)	inactive: -18.9%
COc1ccccc1NC(=S)N(CCCN(C)C)Cc1cc2cc3c(cc2[nH]c1=O)OCO3	inactive: 30.7%
O=C(NCCN1CCCCCC1)c1ccc(CS(=O)(=O)c2ccc(Br)cc2)o1	inconclusive: -31.4% [inhibitor]
O=[N+]([O-])c1cncc([N+](=O)[O-])c1Nc1cccc(O)c1	inconclusive: -68.2% [inhibitor]
COC(=O)c1c(-c2ccccc2)csc1NC1=NS(=O)(=O)c2ccccc21	inconclusive: -46.8% [inhibitor]
Cc1nn(Cc2ccc(Cl)cc2)c(C)c1NC(=O)c1noc2c1CCc1ccccc1-2	inactive: 18%
Cn1c(SCc2ccccc2Cl)nc2c1c(=O)[nH]c(=O)n2C	inconclusive: -43.2% [inhibitor]
CC(C)(C)c1nnc2sc(SCC(=O)c3cccs3)nn2c1=O	inactive: 6.15%
Cc1cc([N+](=O)[O-])ccc1NC(=S)NC(=O)Cc1ccccc1	inactive: 1.86%
CN(C)CCCN(C(=O)C1COc2ccccc2O1)c1nc2cc3c(cc2s1)OCO3 (stereo unspecified)	inconclusive: -32.1% [inhibitor]
O=C(NNS(=O)(=O)c1ccc(F)cc1)c1cc(Cl)ccc1O	inconclusive: -38.9% [inhibitor]
CSc1ccccc1NC(=O)COC(=O)c1ccc(O)cc1	inconclusive: -32.7% [inhibitor]

Structure (SMILES)	activity change
COc1ccc(C(=O)/C=C/c2ccc(OC)c(CN3CCOCC3)c2)cc1	inconclusive: -36.8% [inhibitor]
Clc1cccc(CN2C3=NCCCN3c3ccccc32)c1	inconclusive: -35.2% [inhibitor]
O=C(CN1C(=O)C(=O)N(CCC2=CCCCC2)C1=O)c1c[nH]c2ccccc12	inactive: 4.29%
CCOc1ccccc1OCC(=O)Oc1ccc(C)c(C)c1	inconclusive: -32.6% [inhibitor]
O=C(Nc1ccc(N2CCN(C(=O)c3cccs3)CC2)cc1)c1ccccc1Cl	inactive: 3.04%
CCC(Sc1nc2ccccc2o1)C(=O)O (stereo unspecified)	inactive: 1.33%
Clc1ccccc1CSc1nc2ccncc2[nH]1	inconclusive: -51% [inhibitor]
CCOc1ccc(CNC(=O)c2ccccc2NC(=O)C2=CSCCO2)cc1	inconclusive: -33% [inhibitor]
COc1ccccc1N(C)S(=O)(=O)c1ccc(C(=O)OCC(N)=O)cc1	inconclusive: -31.8% [inhibitor]
COc1cc(NC(=O)CSc2ncccc2C(=O)OC(C)C)cc(OC)c1	inactive: 2.21%
CCCCCCSc1ccc([C@H]2N[C@@](Cc3ccccc3)(C(=O)OC)[C@H]3C(=O)N(C)C(=O)[C@@H]23)cc1	inconclusive: -57% [inhibitor]
O=C(Nc1ccc(N2CCOCC2)cc1)c1ccc(Br)o1	inconclusive: -37% [inhibitor]
COc1ccc2c(CC(=O)OCC(=O)Nc3cccc(C)c3)coc2c1	inconclusive: -33.6% [inhibitor]
CC(=O)c1c(C)oc2ccc(OCc3ccccc3)cc12	inconclusive: -34.2% [inhibitor]
COc1ccc(NC2CCCN(C(=O)CCCn3cncn3)C2)cc1OC (stereo unspecified)	inactive: -10.5%
COC(=O)c1ccc(N2CCN(c3ccccc3)CC2)c(NC(=O)C2CC2)c1	inconclusive: -35.1% [inhibitor]
CCOC(=O)Cn1c(=NC(=O)c2ccc([N+](=O)[O-])s2)sc2ccccc21	active: -95.9%
O=C(Cc1c(F)cccc1Cl)Nc1ncc([N+](=O)[O-])s1	active: -90.9%
CC(C)c1nc2sc3c(SCC(=O)NCc4ccco4)ncnc3c2c2c1CCC2	inconclusive: -33.2% [inhibitor]
O=C1Cc2ccccc2C(=O)N1c1ccc(F)cc1Cl	inactive: -20.7%
Cc1cc(/C=C2\C(=N)N3N=CSC3=NC2=O)c(C)n1Cc1ccccc1	inconclusive: -30.5% [inhibitor]
Cc1ncc([N+](=O)[O-])n1CCOC(=O)Nc1ccc(Cl)c(Cl)c1	active: -89.7%
Cc1cccc(Oc2coc3cc(OC(=O)c4cncc(Br)c4)ccc3c2=O)c1	inconclusive: -32.2% [inhibitor]
CCN(CC)CCCN=C1N[C@@H](c2ccccc2)C(C(=O)OC)=C(C)N1CC	inconclusive: -33.1% [inhibitor]
CCOC(=O)CSc1ccc(C(=O)NCCCN2CCOCC2)cc1[N+](=O)[O-]	inconclusive: -58.6% [inhibitor]
O=C(COC(=O)c1ccc([N+](=O)[O-])s1)NNC(=O)c1ccccc1	inconclusive: -36.5% [inhibitor]

Structure (SMILES)	activity change
Cc1ccc(S(=O)(=O)N2[C@@H](c3ccccc3F)C(C(=O)O)=CC[C@H]2c2ccc(Cl)cc2)cc1	inconclusive: -47.7% [inhibitor]
COc1ccc(CNC(=O)CCSc2nc(-c3ccc4c(c3)OCO4)cc(C(F)(F)F)n2)cc1	inactive: 5.66%
CNC(=S)N(Cc1cccs1)Cc1cc2cc(OC)ccc2[nH]c1=O	inconclusive: -30% [inhibitor]
C=CC(=O)N1C/C(=C/c2ccccc2)C(=O)/C(=C\c2ccccc2)C1	inactive: 25.7%
COc1ccccc1OCC(=O)NCCSCc1ccccc1Cl	inactive: 14.4%
COc1ccccc1N(CC(=O)NCc1ccco1)S(=O)(=O)c1ccc(C)cc1	inactive: 20.8%
O=C(OCc1ccccc1)c1ccccc1	inconclusive: -30.7% [inhibitor]
Cc1cc(C)c(S(=O)(=O)Nc2nnc(C3CCCCC3)s2)c(C)c1	inactive: 4.11%
CCc1ccccc1N(C(=O)c1snc(C(N)=O)c1N)C(C(=O)NCC1CCCO1)c1ccc(OC)c(OC)c1 (stereo unspecified)	inconclusive: -36% [inhibitor]
CC(NC(=O)CCCCCCN1C(=O)c2ccccc2C1=O)c1ccc2c(c1)CCCC2 (stereo unspecified)	inactive: -8.14%
CC(=O)/C(=N\Nc1ccccc1)Sc1cccc2cccnc12	inconclusive: -30.9% [inhibitor]
Cc1ccc(C(=O)Nc2ccc3c(c2)OCCO3)cc1	inconclusive: -70% [inhibitor]
Cc1ccc2[nH]c(=O)c(C(c3nnnn3CC3CCCO3)N3CCCc4ccccc43)cc2c1 (stereo unspecified)	inconclusive: -30.2% [inhibitor]
O=C(c1ccc([N+](=O)[O-])o1)N1CCN(c2nc3c(F)cc(F)cc3s2)CC1	inconclusive: -55.4% [inhibitor]
CCC(=O)Nc1cccc(-c2ccc(N3CCC(C)CC3)nn2)c1	active: -85.1%
O=C(Nc1cc(Cl)ccc1-n1cncn1)c1cncc(Br)c1	inconclusive: -40.2% [inhibitor]
COC(=O)NC(=C(Cl)Cl)S(=O)(=O)c1ccccc1	inactive: 8.16%
O=C(COC(=O)CNC(=O)c1ccc(Cl)cc1Cl)NC(=O)NCc1ccccc1	inconclusive: -35.8% [inhibitor]
COc1ccc(/C=N\NC(=O)c2cc(O)c(O)c(O)c2)cc1COc1ccc(C(=O)OCC(C)C)cc1	inconclusive: -33.9% [inhibitor]
COc1ccc(N2CCN(/C(=N\S(=O)(=O)c3ccc(C)cc3)Nc3nc(C)cc(C)n3)CC2)cc1	inactive: 10.9%
Cc1cc(OCCCn2ccnc2)cc(C(C)C)c1	inactive: -4.62%
COc1cc(NC(=O)c2cc(S(=O)(=O)N3CCCCC3)c[nH]2)cc(OC)c1	inconclusive: -32.3% [inhibitor]
CN(C)S(=O)(=O)c1ccc(NC(=O)N2CCOCC2)cc1	inconclusive: -32.8% [inhibitor]
Cc1nonc1OCCNCc1c(C(=O)N(C)C)nc2ccc(Cl)cn12	inconclusive: -33.5% [inhibitor]
